Publication PMC7396842
These are yes or no findings as the source states them, for the method shown. Binding seen in cells or lysates may run through a third protein. Some binding calls cover weakened binding; strength is not graded here. Sequences can lack the tags named with a protein.

Protein sequences, listed by entry. Tags and fused reporters are not part of them.
UniProt O95166: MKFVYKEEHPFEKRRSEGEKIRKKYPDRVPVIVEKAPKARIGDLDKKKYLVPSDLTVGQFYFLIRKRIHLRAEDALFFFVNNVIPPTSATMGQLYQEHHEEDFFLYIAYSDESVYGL
UniProt P60520: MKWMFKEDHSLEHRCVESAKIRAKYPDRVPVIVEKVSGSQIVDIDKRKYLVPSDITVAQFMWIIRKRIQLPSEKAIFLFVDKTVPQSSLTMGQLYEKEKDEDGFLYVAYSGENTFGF

T1: EGFP-CALCOCO1 (full length), expressed in HEK293 cells (UniProt Q9P1Z2)
T1 sequence: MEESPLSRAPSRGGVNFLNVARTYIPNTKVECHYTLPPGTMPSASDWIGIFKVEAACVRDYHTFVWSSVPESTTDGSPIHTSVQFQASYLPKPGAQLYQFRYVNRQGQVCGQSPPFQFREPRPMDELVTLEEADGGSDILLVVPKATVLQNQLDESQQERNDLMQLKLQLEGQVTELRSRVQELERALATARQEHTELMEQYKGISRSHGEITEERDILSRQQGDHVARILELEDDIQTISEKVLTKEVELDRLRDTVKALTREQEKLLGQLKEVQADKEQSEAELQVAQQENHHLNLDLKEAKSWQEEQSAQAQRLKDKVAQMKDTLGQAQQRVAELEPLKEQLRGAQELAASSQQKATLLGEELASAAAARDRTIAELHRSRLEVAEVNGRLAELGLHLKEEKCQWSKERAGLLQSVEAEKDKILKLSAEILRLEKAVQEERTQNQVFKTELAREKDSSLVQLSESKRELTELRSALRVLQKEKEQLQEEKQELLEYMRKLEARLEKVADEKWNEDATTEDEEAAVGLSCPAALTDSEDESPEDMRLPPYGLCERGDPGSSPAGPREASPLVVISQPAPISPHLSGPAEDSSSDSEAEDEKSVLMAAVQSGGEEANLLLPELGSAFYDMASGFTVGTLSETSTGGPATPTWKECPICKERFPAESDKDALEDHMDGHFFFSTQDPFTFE

T2: GFP-CALCOCO1 (full length), in vitro translated (UniProt Q9P1Z2)
T2 sequence (chain, 35S-methionine label): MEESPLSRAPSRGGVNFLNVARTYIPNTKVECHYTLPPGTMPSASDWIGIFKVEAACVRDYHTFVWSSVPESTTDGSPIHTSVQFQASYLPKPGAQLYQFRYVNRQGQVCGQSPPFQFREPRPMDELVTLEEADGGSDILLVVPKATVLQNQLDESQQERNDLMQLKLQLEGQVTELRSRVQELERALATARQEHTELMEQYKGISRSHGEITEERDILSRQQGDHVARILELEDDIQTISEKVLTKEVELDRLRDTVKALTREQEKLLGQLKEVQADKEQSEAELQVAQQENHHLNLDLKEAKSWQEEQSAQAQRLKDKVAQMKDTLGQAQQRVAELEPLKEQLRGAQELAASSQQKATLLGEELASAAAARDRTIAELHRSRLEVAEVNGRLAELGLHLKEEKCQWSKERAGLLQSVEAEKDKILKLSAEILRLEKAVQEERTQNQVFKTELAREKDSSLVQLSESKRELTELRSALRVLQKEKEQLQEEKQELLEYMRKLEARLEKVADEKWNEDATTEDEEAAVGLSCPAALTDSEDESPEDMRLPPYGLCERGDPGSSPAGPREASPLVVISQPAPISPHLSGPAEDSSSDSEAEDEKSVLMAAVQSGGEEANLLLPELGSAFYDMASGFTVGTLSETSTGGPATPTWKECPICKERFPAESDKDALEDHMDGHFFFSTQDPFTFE


Legend:
[1] = biological target: T1, EGFP-CALCOCO1 (full length), expressed in HEK293 cells; assay: co-IP; EGFP-CALCOCO1 and Myc-tagged proteins transiently co-expressed in HEK293 cells; EGFP-CALCOCO1 precipitated with GFP-TRAP from lysates in modified RIPA buffer (50 mM Tris-HCl pH 7.4, 120 mM NaCl, 1 mM EDTA, 1% NP-40, 0.25% Triton X-100), 4 °C; anti-Myc blot
[2] = biological target: T2, GFP-CALCOCO1 (full length), in vitro translated; assay: co-IP; 35S-GFP-CALCOCO1 co-transcribed/translated in vitro with 35S-Myc constructs; GFP-TRAP immunoprecipitation; SDS-PAGE and autoradiography
GST-GABARAP (human) = GST-GABARAP (human) (UniProt O95166); assay: pull-down; GST fusion protein from E. coli on Glutathione Sepharose beads; 35S-labelled in vitro translated Myc-tagged protein, precleared, incubated 1 h at 4 °C in NETN buffer (50 mM Tris pH 8.0, 150 mM NaCl, 1 mM EDTA, 0.5% NP-40); five washes; autoradiography; only the target purified
GST-GABARAPL2 (human) = GST-GABARAPL2 (human) (UniProt P60520); assay: as above

| Binder | binding (GST-GABARAP (human)) | binding (GST-GABARAPL2 (human)) | other results |
| --- | --- | --- | --- |
| Myc-CALCOCO1 (145–513), expressed in HEK293 cells (domain or fragment, UniProt Q9P1Z2 145-513) KATVLQNQLDESQQERNDLMQLKLQLEGQVTELRSRVQELERALATARQEHTELMEQYKGISRSHGEITEERDILSRQQGDHVARILELEDDIQTISEKVLTKEVELDRLRDTVKALTREQEKLLGQLKEVQADKEQSEAELQVAQQENHHLNLDLKEAKSWQEEQSAQAQRLKDKVAQMKDTLGQAQQRVAELEPLKEQLRGAQELAASSQQKATLLGEELASAAAARDRTIAELHRSRLEVAEVNGRLAELGLHLKEEKCQWSKERAGLLQSVEAEKDKILKLSAEILRLEKAVQEERTQNQVFKTELAREKDSSLVQLSESKRELTELRSALRVLQKEKEQLQEEKQELLEYMRKLEARLEKVADE |  |  | binding [1]: binds |
| Myc-CALCOCO1 (145–513), in vitro translated (domain or fragment, UniProt Q9P1Z2 145-513, 35S-methionine label) KATVLQNQLDESQQERNDLMQLKLQLEGQVTELRSRVQELERALATARQEHTELMEQYKGISRSHGEITEERDILSRQQGDHVARILELEDDIQTISEKVLTKEVELDRLRDTVKALTREQEKLLGQLKEVQADKEQSEAELQVAQQENHHLNLDLKEAKSWQEEQSAQAQRLKDKVAQMKDTLGQAQQRVAELEPLKEQLRGAQELAASSQQKATLLGEELASAAAARDRTIAELHRSRLEVAEVNGRLAELGLHLKEEKCQWSKERAGLLQSVEAEKDKILKLSAEILRLEKAVQEERTQNQVFKTELAREKDSSLVQLSESKRELTELRSALRVLQKEKEQLQEEKQELLEYMRKLEARLEKVADE |  |  | binding [2]: binds |
| Myc-CALCOCO1 ∆145–513, expressed in HEK293 cells (protein, UniProt Q9P1Z2) MEESPLSRAPSRGGVNFLNVARTYIPNTKVECHYTLPPGTMPSASDWIGIFKVEAACVRDYHTFVWSSVPESTTDGSPIHTSVQFQASYLPKPGAQLYQFRYVNRQGQVCGQSPPFQFREPRPMDELVTLEEADGGSDILLVVPKWNEDATTEDEEAAVGLSCPAALTDSEDESPEDMRLPPYGLCERGDPGSSPAGPREASPLVVISQPAPISPHLSGPAEDSSSDSEAEDEKSVLMAAVQSGGEEANLLLPELGSAFYDMASGFTVGTLSETSTGGPATPTWKECPICKERFPAESDKDALEDHMDGHFFFSTQDPFTFE |  |  | binding [1]: no binding |
| Myc-CALCOCO1 ∆145–513, in vitro translated (protein, UniProt Q9P1Z2, 35S-methionine label) MEESPLSRAPSRGGVNFLNVARTYIPNTKVECHYTLPPGTMPSASDWIGIFKVEAACVRDYHTFVWSSVPESTTDGSPIHTSVQFQASYLPKPGAQLYQFRYVNRQGQVCGQSPPFQFREPRPMDELVTLEEADGGSDILLVVPKWNEDATTEDEEAAVGLSCPAALTDSEDESPEDMRLPPYGLCERGDPGSSPAGPREASPLVVISQPAPISPHLSGPAEDSSSDSEAEDEKSVLMAAVQSGGEEANLLLPELGSAFYDMASGFTVGTLSETSTGGPATPTWKECPICKERFPAESDKDALEDHMDGHFFFSTQDPFTFE |  |  | binding [2]: no binding |

More lines, main results first:

| binding (GST-GABARAP (human)) | binding (GST-GABARAPL2 (human)) | Binder | other results |
| --- | --- | --- | --- |
| binds | binds | Myc-CALCOCO1 ∆LIR (Δ126–144) Δ651–691, in vitro translated (domain or fragment, UniProt Q9P1Z2, 35S-methionine label) MEESPLSRAPSRGGVNFLNVARTYIPNTKVECHYTLPPGTMPSASDWIGIFKVEAACVRDYHTFVWSSVPESTTDGSPIHTSVQFQASYLPKPGAQLYQFRYVNRQGQVCGQSPPFQFREPRPMDKATVLQNQLDESQQERNDLMQLKLQLEGQVTELRSRVQELERALATARQEHTELMEQYKGISRSHGEITEERDILSRQQGDHVARILELEDDIQTISEKVLTKEVELDRLRDTVKALTREQEKLLGQLKEVQADKEQSEAELQVAQQENHHLNLDLKEAKSWQEEQSAQAQRLKDKVAQMKDTLGQAQQRVAELEPLKEQLRGAQELAASSQQKATLLGEELASAAAARDRTIAELHRSRLEVAEVNGRLAELGLHLKEEKCQWSKERAGLLQSVEAEKDKILKLSAEILRLEKAVQEERTQNQVFKTELAREKDSSLVQLSESKRELTELRSALRVLQKEKEQLQEEKQELLEYMRKLEARLEKVADEKWNEDATTEDEEAAVGLSCPAALTDSEDESPEDMRLPPYGLCERGDPGSSPAGPREASPLVVISQPAPISPHLSGPAEDSSSDSEAEDEKSVLMAAVQSGGEEANLLLPELGSAFYDMASGFTVGTLSETSTGGPAT |  |
| no binding | no binding | Myc-CALCOCO1 ∆LIR (Δ126–144) Δ641–691, in vitro translated (domain or fragment, UniProt Q9P1Z2, 35S-methionine label) MEESPLSRAPSRGGVNFLNVARTYIPNTKVECHYTLPPGTMPSASDWIGIFKVEAACVRDYHTFVWSSVPESTTDGSPIHTSVQFQASYLPKPGAQLYQFRYVNRQGQVCGQSPPFQFREPRPMDKATVLQNQLDESQQERNDLMQLKLQLEGQVTELRSRVQELERALATARQEHTELMEQYKGISRSHGEITEERDILSRQQGDHVARILELEDDIQTISEKVLTKEVELDRLRDTVKALTREQEKLLGQLKEVQADKEQSEAELQVAQQENHHLNLDLKEAKSWQEEQSAQAQRLKDKVAQMKDTLGQAQQRVAELEPLKEQLRGAQELAASSQQKATLLGEELASAAAARDRTIAELHRSRLEVAEVNGRLAELGLHLKEEKCQWSKERAGLLQSVEAEKDKILKLSAEILRLEKAVQEERTQNQVFKTELAREKDSSLVQLSESKRELTELRSALRVLQKEKEQLQEEKQELLEYMRKLEARLEKVADEKWNEDATTEDEEAAVGLSCPAALTDSEDESPEDMRLPPYGLCERGDPGSSPAGPREASPLVVISQPAPISPHLSGPAEDSSSDSEAEDEKSVLMAAVQSGGEEANLLLPELGSAFYDMASGFTVGTL |  |
| binds | binds | Myc-CALCOCO1 ∆LIR (Δ126–144), in vitro translated (protein, UniProt Q9P1Z2, 35S-methionine label) MEESPLSRAPSRGGVNFLNVARTYIPNTKVECHYTLPPGTMPSASDWIGIFKVEAACVRDYHTFVWSSVPESTTDGSPIHTSVQFQASYLPKPGAQLYQFRYVNRQGQVCGQSPPFQFREPRPMDKATVLQNQLDESQQERNDLMQLKLQLEGQVTELRSRVQELERALATARQEHTELMEQYKGISRSHGEITEERDILSRQQGDHVARILELEDDIQTISEKVLTKEVELDRLRDTVKALTREQEKLLGQLKEVQADKEQSEAELQVAQQENHHLNLDLKEAKSWQEEQSAQAQRLKDKVAQMKDTLGQAQQRVAELEPLKEQLRGAQELAASSQQKATLLGEELASAAAARDRTIAELHRSRLEVAEVNGRLAELGLHLKEEKCQWSKERAGLLQSVEAEKDKILKLSAEILRLEKAVQEERTQNQVFKTELAREKDSSLVQLSESKRELTELRSALRVLQKEKEQLQEEKQELLEYMRKLEARLEKVADEKWNEDATTEDEEAAVGLSCPAALTDSEDESPEDMRLPPYGLCERGDPGSSPAGPREASPLVVISQPAPISPHLSGPAEDSSSDSEAEDEKSVLMAAVQSGGEEANLLLPELGSAFYDMASGFTVGTLSETSTGGPATPTWKECPICKERFPAESDKDALEDHMDGHFFFSTQDPFTFE |  |
|  | binds | Myc-CALCOCO1 ∆CT (∆514–691), in vitro translated (domain or fragment, UniProt Q9P1Z2 1-513, 35S-methionine label) MEESPLSRAPSRGGVNFLNVARTYIPNTKVECHYTLPPGTMPSASDWIGIFKVEAACVRDYHTFVWSSVPESTTDGSPIHTSVQFQASYLPKPGAQLYQFRYVNRQGQVCGQSPPFQFREPRPMDELVTLEEADGGSDILLVVPKATVLQNQLDESQQERNDLMQLKLQLEGQVTELRSRVQELERALATARQEHTELMEQYKGISRSHGEITEERDILSRQQGDHVARILELEDDIQTISEKVLTKEVELDRLRDTVKALTREQEKLLGQLKEVQADKEQSEAELQVAQQENHHLNLDLKEAKSWQEEQSAQAQRLKDKVAQMKDTLGQAQQRVAELEPLKEQLRGAQELAASSQQKATLLGEELASAAAARDRTIAELHRSRLEVAEVNGRLAELGLHLKEEKCQWSKERAGLLQSVEAEKDKILKLSAEILRLEKAVQEERTQNQVFKTELAREKDSSLVQLSESKRELTELRSALRVLQKEKEQLQEEKQELLEYMRKLEARLEKVADE |  |
